The supplement of paper PMC3334620
Whole data set: some 33,000 sequences, median “E-score (-0.5 to 0.5)” near -0.032, cut for the highest 2% near 0.36. Some of the results follow.

target: T1, Sko1 (UniProt Q02100); assay: PBM E-score (8-mer binding enrichment) (E-score (-0.5 to 0.5)); higher = stronger / more preferred TF binding; most listed sequences are background and not binding sites; conditions: protein concentration: 200 nM; construct: GST-full length
T1 sequence: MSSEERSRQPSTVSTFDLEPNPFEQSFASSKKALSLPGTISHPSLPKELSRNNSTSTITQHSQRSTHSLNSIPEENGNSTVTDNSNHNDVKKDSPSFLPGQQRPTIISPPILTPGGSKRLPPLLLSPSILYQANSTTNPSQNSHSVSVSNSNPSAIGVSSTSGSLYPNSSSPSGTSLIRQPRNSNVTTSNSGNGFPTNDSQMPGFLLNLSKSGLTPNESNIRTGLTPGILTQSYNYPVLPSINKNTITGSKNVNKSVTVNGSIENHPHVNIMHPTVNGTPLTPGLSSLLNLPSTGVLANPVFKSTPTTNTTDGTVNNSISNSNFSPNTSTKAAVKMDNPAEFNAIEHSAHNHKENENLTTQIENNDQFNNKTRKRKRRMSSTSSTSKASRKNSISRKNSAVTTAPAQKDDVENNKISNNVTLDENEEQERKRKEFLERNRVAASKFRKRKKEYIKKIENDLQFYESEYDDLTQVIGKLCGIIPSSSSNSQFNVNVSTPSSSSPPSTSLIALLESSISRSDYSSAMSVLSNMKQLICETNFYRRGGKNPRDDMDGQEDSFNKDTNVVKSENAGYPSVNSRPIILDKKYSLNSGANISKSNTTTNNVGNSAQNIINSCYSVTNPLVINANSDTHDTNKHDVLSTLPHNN
How it was run: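 Yeast transcription factors carrying a GST tag, as full-length proteins or DNA-binding domains, were produced by PURExpress in vitro transcription/translation. About 100-200 nM protein was applied to universal all-10-mer Agilent arrays, double-stranded by primer extension on fresh or once-stripped slides. Bound protein was detected with fluorescent anti-GST, and scans were normalised with masliner. The Universal PBM Analysis Suite gave each ungapped eight-base word, pooled with its reverse complement, an E-score, a modified Wilcoxon-Mann-Whitney statistic.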

Row | Sequence | PBM E-score
1 | CTTCGGCC | -0.0373
2 | GCATGACA | 0.214
3 | GGAGACCC | -0.312
4 | GATTGCCA | -0.162
5 | CTGCGTTA | 0.0283
6 | AACCAAAT | 0.0129
7 | ATCCACAG | -0.132
8 | ATTATGAG | 0.18
9 | AGTCTTCA | -0.118
10 | AGTAGGGG | -0.195
11 | AACGAGGC | -0.106
12 | AAAGTTGT | 0.135
13 | GAGCAACC | -0.0456
14 | GGCTGTGA | -0.2
15 | CGAACGGC | -0.171
16 | ATTAGACG | 0.191
17 | ATTGAATA | 0.271
18 | GGACACAC | -0.0616
19 | CACTAGGG | -0.289
20 | AGTACAAC | -0.135
21 | ACTCAGGG | -0.303
22 | CGAGCGCG | 0.00482
23 | CCTAGTTC | -0.0891
24 | CAATGCGG | -0.198
25 | AAGTATAG | -0.089

Row | Sequence | PBM E-score
26 | AGCTACCT | -0.0397
27 | TCTGGGAA | -0.00346
28 | TATTTTCA | 0.145
29 | ACTCGTCG | 0.0478
30 | AATCGACA | 0.151
31 | ATTGCGAG | -0.0027
32 | GCCACCAA | -0.0477
33 | CACACCAA | 0.148
34 | ATGTCATA | 0.41
35 | CTGCTCCA | -0.14
36 | AGCTTTTG | -0.0101
37 | TCGTCGAA | 0.118
38 | GTTCTAGA | -0.0486
39 | GAGTCTTA | -0.109
40 | GGTCTCCA | -0.19
41 | CCTTGACG | 0.275
42 | AATTACGA | 0.411
43 | AGCCGCGC | -0.168
44 | AGAGCGTG | -0.192
45 | CCATGACC | -0.0889
46 | CTTATCTA | 0.186
47 | ATGCGAAA | 0.128
48 | CACAAGGG | -0.341
49 | AGGTGGCC | -0.218
50 | AGTGGGAC | -0.111

Row | Sequence | PBM E-score
51 | ATAAGTAG | -0.00432
52 | ACACAGGT | -0.14
53 | AATGAAGA | 0.118
54 | CCTTCCAG | -0.214
55 | GGCCCGCA | -0.221
56 | AGATGCCA | -0.0921
57 | AGAGGTAA | 0.00195
58 | GATCCGAA | -0.153
59 | TATGATCA | 0.259
60 | ATGGAACA | -0.169
61 | AGGGAAAC | -0.0869
62 | CGTTAAAC | 0.198
63 | CACTAAAA | 0.0614
64 | CCCTTAGC | -0.281
65 | AGGATCTA | -0.208
66 | GGAAAAGA | -0.0129
67 | ATTACGGA | 0.287
68 | GGCCGCAC | -0.311
69 | AATCCCGT | 0.146
70 | GATGTAAA | 0.177
71 | TCGTAACA | 0.275
72 | GCCGCGCA | -0.219
73 | ACTCAGGA | -0.0343
74 | AAAACGTG | 0.304
75 | AAGATCGG | -0.235

Row | Sequence | PBM E-score
76 | GCGGTAAC | -0.122
77 | CTCCTTGC | -0.141
78 | GGCCGAAA | 0.00137
79 | AACGAAGA | 0.0654
80 | AAACGGTC | -0.0837
81 | CCTATGGC | -0.343
82 | AGAATGGG | -0.238
83 | GGCAGTGA | -0.125
84 | ACTTTCGA | 0.0607
85 | GCGTACGC | 0.269
86 | AAAAGTTA | 0.298
87 | AATCGGCA | 0.0691
88 | CAAAAGAG | -0.00659
89 | CTCACTGA | -0.0558
90 | GGGCAGAC | -0.242
91 | CACCGGCC | -0.179
92 | CGATGGAC | -0.0164
93 | AATTCAAC | 0.138
94 | GACTACGC | 0.0875
95 | ACTATCCG | 0.12
96 | CTCCGGAA | -0.19
97 | ATATTTGG | 0.228
98 | CCTACAGG | -0.365
99 | TCTTTCCA | 0.0944
100 | CCAGCCCG | -0.421

Row | Sequence | PBM E-score
101 | ATAACAAG | 0.079
102 | AAAGGTAA | 0.0369
103 | AACTGGCG | 0.0329
104 | CTACCTAG | -0.159
105 | AAGGTAAT | 0.1
106 | CGAGGGAC | -0.328
107 | GATGTCGA | 0.0456
108 | CTAAGCCC | -0.255
109 | TAGGAGCA | -0.0201
110 | AATATTTC | 0.191
111 | AGTTTGCG | 0.0104
112 | CGATCGTA | 0.174
113 | CTGCCCTA | -0.273
114 | AAGAATGG | -0.163
115 | ATACTCCA | 0.0192
116 | CCCGGTTA | -0.26
117 | ACCCTGTG | -0.0965
118 | GCAGCCAC | -0.143
119 | CGAACTCA | -0.113
120 | CAATCTCA | 0.0473
121 | CGGCCGCA | -0.327
122 | AAACCAGT | -0.0849
123 | GCGGTTCC | -0.114
124 | AAACGCGT | 0.221
125 | AACTCCAT | -0.0023

Row | Sequence | PBM E-score
126 | GTGATTAA | 0.263
127 | GATTCTAC | 0.0366
128 | ACGGAATC | 0.158
129 | AAAAGTCG | -0.0404
130 | GCACGACA | -0.0954
131 | TCGAGAGA | -0.162
132 | AATTGACG | 0.356
133 | CGGATACA | 0.00396
134 | CCTTAACC | -0.301
135 | CCAGAGCA | -0.186
136 | GATTAGGC | 0.0558
137 | ACGATTAC | 0.369
138 | CATGGCCA | -0.106
139 | CAGTACCA | -0.111
140 | AGATCCTG | -0.126
141 | CCGCATCA | -0.0746
142 | GTTACGCA | 0.417
143 | CAGTGGAA | -0.132
144 | ATGACACA | 0.307
145 | CTTCCTCA | -0.153
146 | AATTGATA | 0.245
147 | CCCCTCTC | -0.424
148 | ATGATCGC | 0.0857
149 | AGCGGGAA | -0.0798
150 | ATTCGTAA | 0.433

Row | Sequence | PBM E-score
151 | ATCATGTA | 0.235
152 | GATACCGC | -0.117
153 | CGTCACAA | 0.388
154 | CGAGACCA | -0.114
155 | CAGTTAGA | -0.0644
156 | AAGAACTC | 0.095
157 | GCCTGAGA | -0.241
158 | ATGTCATG | 0.403
159 | TATACACA | 0.225
160 | GCAAGCAC | -0.13
161 | TCCTATCA | -0.0566
162 | ATTCTATA | 0.183
163 | ATACGCTG | -0.0194
164 | CTAAGGTC | -0.0258
165 | GGACGAGA | 0.0144
166 | CATGGGCG | -0.034
167 | CTACAAGC | -0.0402
168 | ACAAAATG | 0.206
169 | GGTAGCGA | -0.125
170 | CTCGTTCC | -0.0749
171 | GAAGAGCA | -0.108
172 | ACGCGCAC | 0.0462
